{
  "source": "the supplement of paper PMC8728848",
  "binders": {"B1": {"name": "PX9961H-bth-557-24-557 (Bacteroides thetaiotaomicron) (protein)", "chain": "EETRTEVEKKNYMNNAEEAKDVLLGVYRTNTLDAMYGYYLSILFNLGTDISQVEGSGNENFRIIPTNSFPTTQSEVQQTWAALYTGIYRANDFLERISNKIGSYTTTDKKLATLYIAEARALRGMFYFELVRRFGNVVLMTSTQMSNQNPATYVQSAPEKVYEYIEDDLLYACDILPYATDDQYRESNDYRFSKGAALGLLTKVYATWAGYPVKDESKWEAAAKTARILVESGKHGLLKDYEQLWKNTCNGTWDPTESLIEISFYSPTVSGNSDPVGRIGKWNGVKTTAIAGVRGSCAANVKVVHTFVLDWREDVSDIRRDLSIANYQYTDTKKSLWVAGASDTDESAAEKDADPTKAQKNKQNYTPAKWDIQKYVTTNSFINNDKSNVNWYFLRYADVLLLYAEALNEWKHGPDAEAYNAINAVRRRGYGNPSNTSACDLPQGLDETSFREAVRKERSYELSFEGHRRQDLIRWGIYYKTVQATAKELGYWWEGTGSPNYSVATYTEEGKHELFPIPQRDMDLCIQFNQNPKW"}},
  "experiment_in_all_cases": "glycan array binding signal (z-score within array); higher = stronger binding",
  "conditions_in_all_cases": "glycan notation: IUPAC condensed, linker removed",
  "key": {"Fuc(a1-2)Gal": {"target": "Fuc(a1-2)Gal", "summary_of_the_method": "(§1)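 The binding signal is a Z-score computed within each array and averaged over linkers. Arrays of the same protein sequence at different concentrations or buffers were also averaged together. Data originate from 3228 arrays in the Consortium for Functional Glycomics database, kept only where the protein sequence was available.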"}, "Fuc(a1-2)Gal(b1-3)GalNAc": {"target": "Fuc(a1-2)Gal(b1-3)GalNAc", "summary_of_the_method": "as §1"}, "[1]": {"target": "Fuc(a1-2)Gal(b1-3)GalNAc(a1-3)[Fuc(a1-2)]Gal(b1-4)Glc", "summary_of_the_method": "as §1"}, "[2]": {"target": "Fuc(a1-2)Gal(b1-3)GalNAc(a1-3)[Fuc(a1-2)]Gal(b1-4)GlcNAc", "summary_of_the_method": "as §1"}, "[3]": {"target": "Fuc(a1-2)Gal(b1-3)GalNAc(b1-3)Gal", "summary_of_the_method": "as §1"}, "[4]": {"target": "Fuc(a1-2)Gal(b1-3)GalNAc(b1-3)Gal(a1-4)Gal(b1-4)Glc", "summary_of_the_method": "as §1"}, "[5]": {"target": "Fuc(a1-2)Gal(b1-3)GalNAc(b1-4)[Neu5Ac(a2-3)]Gal(b1-4)Glc", "summary_of_the_method": "as §1"}, "Fuc(a1-2)Gal(b1-3)GlcNAc": {"target": "Fuc(a1-2)Gal(b1-3)GlcNAc", "summary_of_the_method": "as §1"}, "[6]": {"target": "Fuc(a1-2)Gal(b1-3)GlcNAc(b1-2)Man(a1-3)[Fuc(a1-2)Gal(b1-3)GlcNAc(b1-2)Man(a1-6)]Man(b1-4)GlcNAc(b1-4)GlcNAc", "summary_of_the_method": "as §1"}, "[7]": {"target": "Fuc(a1-2)Gal(b1-3)GlcNAc(b1-2)Man(a1-3)[Fuc(a1-2)Gal(b1-3)GlcNAc(b1-2)Man(a1-6)]Man(b1-4)GlcNAc(b1-4)[Fuc(a1-6)]GlcNAc", "summary_of_the_method": "as §1"}, "[8]": {"target": "Fuc(a1-2)Gal(b1-3)GlcNAc(b1-3)Gal(b1-4)Glc", "summary_of_the_method": "as §1"}, "[9]": {"target": "Fuc(a1-2)Gal(b1-3)GlcNAc(b1-3)GalNAc", "summary_of_the_method": "as §1"}, "[10]": {"target": "Fuc(a1-2)Gal(b1-3)GlcNAc(b1-3)[Fuc(a1-2)Gal(b1-3)GlcNAc(b1-6)]GalNAc", "summary_of_the_method": "as §1"}, "[11]": {"target": "Fuc(a1-2)Gal(b1-3)GlcNAc(b1-3)[Gal(b1-4)GlcNAc(b1-6)]Gal(b1-4)Glc", "summary_of_the_method": "as §1"}, "[12]": {"target": "Fuc(a1-2)Gal(b1-3)GlcNAc(b1-3)[Neu5Ac(a2-6)Gal(b1-4)GlcNAc(b1-6)]Gal(b1-4)Glc", "summary_of_the_method": "as §1"}, "[13]": {"target": "Fuc(a1-2)Gal(b1-3)GlcNAc6S", "summary_of_the_method": "as §1"}, "[14]": {"target": "Fuc(a1-2)Gal(b1-3)[Fuc(a1-4)]GlcNAc", "summary_of_the_method": "as §1"}, "[15]": {"target": "Fuc(a1-2)Gal(b1-3)[Fuc(a1-4)]GlcNAc(b1-2)Man(a1-3)[Fuc(a1-2)Gal(b1-3)[Fuc(a1-4)]GlcNAc(b1-2)Man(a1-3)]Man(b1-4)GlcNAc(b1-4)GlcNAc", "summary_of_the_method": "as §1"}, "[16]": {"target": "Fuc(a1-2)Gal(b1-3)[Fuc(a1-4)]GlcNAc(b1-2)Man(a1-3)[Fuc(a1-2)Gal(b1-3)[Fuc(a1-4)]GlcNAc(b1-2)Man(a1-6)]Man(b1-4)GlcNAc(b1-4)[Fuc(a1-6)]GlcNAc(b1-4)[Fuc(a1-6)]GlcNAc", "summary_of_the_method": "as §1"}, "[17]": {"target": "Fuc(a1-2)Gal(b1-3)[Fuc(a1-4)]GlcNAc(b1-3)[Fuc(a1-3)[Gal(b1-4)]GlcNAc(b1-6)]Gal(b1-4)Glc", "summary_of_the_method": "as §1"}, "[18]": {"target": "Fuc(a1-2)Gal(b1-3)[Fuc(a1-4)]GlcNAc(b1-3)[Gal(b1-4)GlcNAc(b1-6)]Gal(b1-4)Glc", "summary_of_the_method": "as §1"}, "Fuc(a1-2)Gal(b1-4)Glc": {"target": "Fuc(a1-2)Gal(b1-4)Glc", "summary_of_the_method": "as §1"}, "Fuc(a1-2)Gal(b1-4)Glc6S": {"target": "Fuc(a1-2)Gal(b1-4)Glc6S", "summary_of_the_method": "as §1"}, "Fuc(a1-2)Gal(b1-4)GlcNAc": {"target": "Fuc(a1-2)Gal(b1-4)GlcNAc", "summary_of_the_method": "as §1"}, "[19]": {"target": "Fuc(a1-2)Gal(b1-4)GlcNAc(b1-2)Man", "summary_of_the_method": "as §1"}, "[20]": {"target": "Fuc(a1-2)Gal(b1-4)GlcNAc(b1-2)Man(a1-3)[Fuc(a1-2)Gal(b1-4)GlcNAc(b1-2)Man(a1-6)]Man(b1-4)GlcNAc(b1-4)GlcNAc", "summary_of_the_method": "as §1"}, "[21]": {"target": "Fuc(a1-2)Gal(b1-4)GlcNAc(b1-2)Man(a1-3)[Fuc(a1-2)Gal(b1-4)GlcNAc(b1-2)Man(a1-6)]Man(b1-4)GlcNAc(b1-4)[Fuc(a1-6)]GlcNAc", "summary_of_the_method": "as §1"}, "[22]": {"target": "Fuc(a1-2)Gal(b1-4)GlcNAc(b1-2)[Fuc(a1-2)Gal(b1-4)GlcNAc(b1-4)]Man(a1-3)[Fuc(a1-2)Gal(b1-4)GlcNAc(b1-2)Man(a1-6)]Man(b1-4)GlcNAc(b1-4)GlcNAc", "summary_of_the_method": "as §1"}, "[23]": {"target": "Fuc(a1-2)Gal(b1-4)GlcNAc(b1-3)Gal(b1-4)GlcNAc", "summary_of_the_method": "as §1"}, "[24]": {"target": "Fuc(a1-2)Gal(b1-4)GlcNAc(b1-3)Gal(b1-4)GlcNAc(b1-2)Man(a1-3)[Fuc(a1-2)Gal(b1-4)GlcNAc(b1-3)Gal(b1-4)GlcNAc(b1-2)Man(a1-6)]Man(b1-4)GlcNAc(b1-4)GlcNAc", "summary_of_the_method": "as §1"}},
  "note": "The other results are listed elsewhere or left out.",
  "data": [
    {"binder": "B1", "values": [
      {"measurement": "glycan array binding signal (z-score)", "setting": "Fuc(a1-2)Gal", "result": -0.153},
      {"measurement": "glycan array binding signal (z-score)", "setting": "Fuc(a1-2)Gal(b1-3)GalNAc", "result": -0.325},
      {"measurement": "glycan array binding signal (z-score)", "setting": "[1]", "result": -0.462},
      {"measurement": "glycan array binding signal (z-score)", "setting": "[2]", "result": -0.38},
      {"measurement": "glycan array binding signal (z-score)", "setting": "[3]", "result": -0.064},
      {"measurement": "glycan array binding signal (z-score)", "setting": "[4]", "result": -0.263},
      {"measurement": "glycan array binding signal (z-score)", "setting": "[5]", "result": -0.543},
      {"measurement": "glycan array binding signal (z-score)", "setting": "Fuc(a1-2)Gal(b1-3)GlcNAc", "result": -0.431},
      {"measurement": "glycan array binding signal (z-score)", "setting": "[6]", "result": 3.58},
      {"measurement": "glycan array binding signal (z-score)", "setting": "[7]", "result": -0.438},
      {"measurement": "glycan array binding signal (z-score)", "setting": "[8]", "result": -0.338},
      {"measurement": "glycan array binding signal (z-score)", "setting": "[9]", "result": 0.055},
      {"measurement": "glycan array binding signal (z-score)", "setting": "[10]", "result": -0.177},
      {"measurement": "glycan array binding signal (z-score)", "setting": "[11]", "result": 1.19},
      {"measurement": "glycan array binding signal (z-score)", "setting": "[12]", "result": -0.391},
      {"measurement": "glycan array binding signal (z-score)", "setting": "[13]", "result": -0.308},
      {"measurement": "glycan array binding signal (z-score)", "setting": "[14]", "result": -0.384},
      {"measurement": "glycan array binding signal (z-score)", "setting": "[15]", "result": -0.045},
      {"measurement": "glycan array binding signal (z-score)", "setting": "[16]", "result": 0.048},
      {"measurement": "glycan array binding signal (z-score)", "setting": "[17]", "result": -0.382},
      {"measurement": "glycan array binding signal (z-score)", "setting": "[18]", "result": -0.405},
      {"measurement": "glycan array binding signal (z-score)", "setting": "Fuc(a1-2)Gal(b1-4)Glc", "result": -0.466},
      {"measurement": "glycan array binding signal (z-score)", "setting": "Fuc(a1-2)Gal(b1-4)Glc6S", "result": -0.342},
      {"measurement": "glycan array binding signal (z-score)", "setting": "Fuc(a1-2)Gal(b1-4)GlcNAc", "result": -0.309},
      {"measurement": "glycan array binding signal (z-score)", "setting": "[19]", "result": -0.188},
      {"measurement": "glycan array binding signal (z-score)", "setting": "[20]", "result": 1.25},
      {"measurement": "glycan array binding signal (z-score)", "setting": "[21]", "result": 0.16},
      {"measurement": "glycan array binding signal (z-score)", "setting": "[22]", "result": 3.23},
      {"measurement": "glycan array binding signal (z-score)", "setting": "[23]", "result": -0.446},
      {"measurement": "glycan array binding signal (z-score)", "setting": "[24]", "result": -0.206}
    ]}
  ]
}
